Measurements taken from PubChem BioAssay AID588342 (National Center for Advancing Translational Sciences (NCATS), 2011).
Where “and” joins values, the source holds several entries; their conditions need not be identical. Equal values may be shown once. Hit rate of the full screen: of about 360,000 compounds, about 25,000 (6.9%) were called active. Inconclusive means that the source gave no clear call. Such entries were picked first, then a sample of the others. The call rests on the fitted dose curve; in most records, active means well fitted inhibition curve with a large enough effect; inconclusive means small, poorly fitted or top-dose-only effect; inactive means flat fitted curve, though single readings scatter. Potencies of inconclusive entries are doubtful fits and often do not repeat.

target: Luciferin 4-monooxygenase (Photinus pyralis) (UniProt P08659); experiment: qHTS profiling assay for firefly luciferase inhibitor/activator using purifed enzyme and Km concentrations of substrates (counterscreen for miR-21 project); settings: purified FLuc, luminescence inhibition; series mostly up to 57.5 µM; further: nearly all actives have a fitted effect of over 55% in size
In short: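 Biochemical qHTS of compounds, final roughly 60 µM downward over six points, against 10 nM purified firefly luciferase using Km concentrations of substrates (10 uM D-luciferin, 10 uM ATP) in Tris acetate pH 7.5 buffer; luminescence output.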
Potency means the concentration at half of the fitted maximal effect; tags describe the fitted curve by direction and shape.

Chain of UniProt P08659 (P08659 whole entry, looked up): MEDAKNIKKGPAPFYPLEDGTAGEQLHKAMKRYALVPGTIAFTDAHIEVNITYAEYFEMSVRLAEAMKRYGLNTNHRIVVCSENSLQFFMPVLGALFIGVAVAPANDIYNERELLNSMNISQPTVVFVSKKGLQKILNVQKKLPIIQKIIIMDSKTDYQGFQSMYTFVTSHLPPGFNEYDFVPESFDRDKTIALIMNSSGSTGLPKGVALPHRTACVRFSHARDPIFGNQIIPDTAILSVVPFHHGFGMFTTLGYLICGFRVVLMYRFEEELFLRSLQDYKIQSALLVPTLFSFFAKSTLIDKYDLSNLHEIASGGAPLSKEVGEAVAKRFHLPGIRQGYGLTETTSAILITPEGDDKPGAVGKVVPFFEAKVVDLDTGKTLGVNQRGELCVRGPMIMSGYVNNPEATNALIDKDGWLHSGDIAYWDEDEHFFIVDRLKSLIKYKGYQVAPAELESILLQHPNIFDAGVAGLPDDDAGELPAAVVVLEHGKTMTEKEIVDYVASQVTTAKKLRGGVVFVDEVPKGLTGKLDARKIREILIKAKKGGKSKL

SMILES | Potency
Cc1ccc2cc3c(NS(=O)(=O)c4cccc5nonc45)nn(CC(C)C)c3nc2c1 | inconclusive: 37.9 µM [inhibitor, single point]
COc1ccc(-c2nc(C#N)c(NCC3CCCO3)o2)cc1 (stereo not given) | active: 13.5 µM
Cc1ccc(NC(=O)CN(C)C(=O)CNC(=O)c2sc3ccccc3c2Cl)cc1 | active: 2.69 µM
Cc1ccc(Cn2ccnc2SCC(=O)Nc2nc3ccccc3s2)cc1 | inconclusive: 26.9 µM [inhibitor, partial curve, poor fit]
NC(=O)COc1ccc(Nc2nnc(-c3ccc(O)cc3)c3ccccc23)cc1 | inconclusive: 37.9 µM [inhibitor, partial curve, poor fit]
CCOc1ccc(N(CC(=O)NCc2ccccc2Cl)S(=O)(=O)c2c(C)noc2C)cc1 | inactive
Cn1c(=N)n(CC(=O)c2ccccc2)c2ccccc21 | active: 1.2 µM
Cc1cc(NC(=O)c2cc(CC(C)C)on2)no1 | active: 10.7 µM
COc1ccc(Cn2nnnc2C(CC(C)C)N2CCC(C(N)=O)CC2)cc1 (stereo not given) | inconclusive: 19 µM [inhibitor, partial curve]
CN1/C(=C\C=Nc2ccc3ccccc3c2)C(C)(C)c2ccccc21 | inconclusive: 21.3 µM [inhibitor, single point]
CN1CCN(c2ccc(CNS(=O)(=O)c3ccc(Cl)cc3)cc2)CC1 | inactive
O=C(COc1ccc2c(-c3ccccc3)cc(=O)oc2c1)NCC1CCC(C(=O)O)CC1 (stereo not given) | active: 21.3 µM
NC(=O)C1(N2CCCCC2)CCN(C(=O)Nc2ccc(F)cc2F)CC1 | inactive
CCCn1nc(NC(=O)c2cccs2)c2cc3ccc(C)cc3nc21 | inconclusive: 16.9 µM [inhibitor, partial curve]
COc1cccc(OCCSc2nc(N)cc(N)n2)c1 | active: 23.9 µM
O=C1CC(c2ccccc2)=NN1c1nc(-c2ccccc2)cs1 | inconclusive: 33.8 µM [inhibitor, single point]
COc1ccc(C(=O)ON=C2CCN(c3ccc([N+](=O)[O-])cc3)CC2)cc1 | inconclusive: 30.1 µM [inhibitor, partial curve, poor fit]
Cc1nc(C)c(/C(O)=C/c2nc3ccccc3oc2=O)s1 | inconclusive: 10.7 µM [inhibitor, partial curve]
Cc1ccccc1OCC(=O)Nc1ccc2nc(SCC(=O)N3CCCC3)sc2c1 | inconclusive: 42.6 µM [inhibitor, partial curve, poor fit]
Cc1ccc(-c2cc(N)n(-c3ccccc3)n2)cc1 | active: 1.69 µM
CN(CCCC(=O)Nc1ccc(Br)cc1F)S(=O)(=O)c1ccccc1 | inactive
Cn1cccc1C(=O)OCC(=O)Nc1ccc2c(c1)CCC2 | inconclusive: 12 µM [inhibitor, partial curve]
Cc1ccc(OCCC(=O)Nc2ccc(S(=O)(=O)Nc3nccs3)cc2)cc1 | inconclusive: 26.9 µM [inhibitor, single point]
O=C1C(Cl)=C(Nc2ccccc2O)C(=O)N1CCc1ccccc1 | inconclusive: 23.9 µM [inhibitor, single point]

SMILES | Potency
COc1ccc(Cn2c(-c3ccc(OC)c(O)c3)nc3ccccc32)cc1O | inconclusive: 37.9 µM [inhibitor, single point]
C[C@H](NC(=O)OC(C)(C)C)C(=O)N/N=C/C1=Cc2ccccc2OC1 | inconclusive: 26.9 µM [inhibitor, single point]
CCc1ccc(/C=C2/SC(=S)N(CCC(=O)Nc3ccc(C(=O)O)cc3)C2=O)cc1 | active: 0.849 µM
COc1ccccc1Nc1nc(-c2ccccc2)c(CC(=O)O)s1 | active: 16.9 µM
COc1ccc2c(c1)c1c(c(=O)n(-c3cccc(C)c3)c(=O)n1CC(=O)NCCC1=CCCCC1)n2C | inactive
COCC(=O)Nc1nnc(COc2ccc(Cl)cc2)s1 | inconclusive: 23.9 µM [inhibitor, partial curve, poor fit]
O=c1oc2c(CN3CCCCCC3)c(O)ccc2cc1-c1nc2ccccc2[nH]1 | inconclusive: 19 µM [inhibitor, partial curve, poor fit]
CCC(Nc1ccc(-c2nc(-c3cccnc3)no2)cc1[N+](=O)[O-])c1ccccc1 (stereo not given) | inactive
Cc1ccc(-c2ccc(C3C(C#N)=C(N)Oc4n[nH]c(C)c43)o2)cc1 (stereo not given) | inconclusive: 13.5 µM [inhibitor, partial curve, poor fit]
CC(=O)Nc1ccc(Nc2ccc3cc(S(=O)(=O)N4CCCCC4)ccc3n2)cc1 | inconclusive: 30.1 µM [inhibitor, partial curve, poor fit]
CC(C)C(NC(=O)OCc1ccccc1)C(=O)OCC(=O)N1CCCCC1 (stereo not given) | active: 16.9 µM
O=C(c1noc2c1CCCC2)N1CCc2ccccc2C1 | active: 16.9 µM
O=c1cc(CSc2nnc(COc3ccc(Cl)cc3)o2)c2ccccc2[nH]1 | inactive
FC(F)(F)c1cccc(N2CCC(N=CN3CCCCCC3)=N2)c1 | inconclusive: 19 µM [inhibitor, partial curve]
COc1ccc(C(=O)CCc2ccccc2)cc1 | active: 16.9 µM
Cc1c(/C=N/Nc2nc3ccccc3[nH]2)c2ccccc2n1C | active: 10.7 µM
CSCc1ccc(C(=O)NCc2ccc(C)cc2)cc1 | inconclusive: 21.3 µM [inhibitor, partial curve, poor fit]
CCOC(=O)c1cnc(-n2nc(C)cc2C)nc1N(CC)CC | inconclusive: 23.9 µM [inhibitor, single point]
CCOC(=O)c1cnc2ccc(OCC)cc2c1NCc1ccccc1OC | inconclusive: 19 µM [inhibitor, partial curve, poor fit]
CCN(c1ccccc1)S(=O)(=O)c1ccc(NC(=O)c2nc(S(C)(=O)=O)ncc2Cl)cc1 | inconclusive: 26.9 µM [inhibitor, partial curve, poor fit] and inconclusive: 21.3 µM [inhibitor, partial curve, poor fit]
COc1cc(NC(=O)c2ccno2)cc(C(=O)Nc2cccc(C(F)(F)F)c2)c1 | inconclusive: 26.9 µM [inhibitor, single point]
CCN1CCN(CC(=O)Nc2nc3ccc(C)cc3s2)CC1 | inactive
O=C(Nc1cccc(C(=O)NC2CCCCC2)c1)c1ccccc1 | inconclusive: 23.9 µM [inhibitor, single point]
CCOc1ccc(C(=O)NCC(=O)OCCCOC(=O)CNC(=O)c2ccc(OCC)cc2)cc1 | inconclusive: 37.9 µM [inhibitor, partial curve, poor fit]

SMILES | Potency
O=C(O)c1ccc(NC(=O)c2ccc(COc3ccc(Cl)cc3)o2)cc1 | inconclusive: 19 µM [inhibitor, partial curve]
CCC1(C)CC(=O)c2c(ccc3oc(C(=O)Nc4ccc(C(C)=O)cc4)c(C)c23)O1 (stereo not given) | inconclusive: 8.49 µM [inhibitor, partial curve, poor fit]
Cc1ccc(N2C(=O)c3n[nH]c(C)c3C2c2ccccn2)cc1 (stereo not given) | inconclusive: 23.9 µM [inhibitor, partial curve, poor fit]
CCn1c(=NC(=O)c2ccco2)sc2cccc(F)c21 | active: 16.9 µM
COc1ccc(Nc2ncnc3sccc23)cc1OC | inconclusive: 19 µM [inhibitor, partial curve]
O=C(COc1ccccc1Cl)N1N=C(c2cccs2)CC1c1ccco1 (stereo not given) | inconclusive: 23.9 µM [inhibitor, partial curve, poor fit]
COc1ccc(NC(=S)N2CCC(Cc3ccccc3)CC2)cc1 | inconclusive: 16.9 µM [inhibitor, partial curve]
COc1ccc(-c2cc(-c3ccccc3)nc(NN)n2)cc1OC | inconclusive: 19 µM [inhibitor, partial curve]
COc1ccc(NC(=O)Nc2cc(C)ccc2OC(F)F)c(OC)c1 | inconclusive: 19 µM [inhibitor, single point]
C=C(C)C1CC=C(C)/C(=N/NC(=O)c2ccoc2C)C1 (stereo not given) | inconclusive: 37.9 µM [inhibitor, partial curve, poor fit]
O=[N+]([O-])c1ccc(N=Nc2ncc[nH]2)cc1 | inconclusive: 23.9 µM [inhibitor, partial curve, poor fit]
COc1cccc(/C=C/C(=O)NCc2ccc3c(c2)OCO3)c1 | inconclusive: 26.9 µM [inhibitor, single point]
CCc1cc(=O)oc2cc(OCc3nn[nH]n3)ccc12 | inconclusive: 16.9 µM [inhibitor, partial curve]
C/C(=N\NC(=O)Cc1cccc2ccccc12)c1ccncc1 | inactive
N#C/C(=C\c1ccc(F)cc1)c1nc(-c2ccco2)cs1 | active: 2.69 µM
CCN(C(=O)CSc1nc2ccccc2c(=O)n1C(C)COC)C1CCS(=O)(=O)C1 (stereo not given) | inactive
Cc1ccc(C)c(N2CCN(CCCNC(=O)c3ccc4nc(N5CCC(C)CC5)sc4c3)CC2)c1 | inconclusive: 8.49 µM [inhibitor, partial curve]
O=C(NCCCc1ccccc1)c1ccc(F)cc1 | active: 23.9 µM
OC(CNCc1cccnc1)COc1ccc2ccccc2c1 (stereo not given) | inactive
COc1ccccc1NC(=O)Nc1ncccc1C | inconclusive: 21.3 µM [inhibitor, single point]
CCCn1nnc(NC(=O)c2ccc(F)cc2)n1 | inconclusive: 30.1 µM [inhibitor, partial curve, poor fit]
O=[N+]([O-])c1cc(/C=N/Nc2nc3ccccc3[nH]2)c(O)cc1O | active: 23.9 µM
